# Test results reported in a compilation of properties of binary mixtures (doi:10.1016/j.molliq.2017.08.088).
# The densities may have been worked out from excess volumes.
# Assay: xn = mol fraction of the nth substance listed
# Details: 101 kPa
smiles,measurement,setting,value
CN(CCO)CCO + CCCC[n+]1ccn(C)c1.F[B-](F)(F)F,mass density,"293.15 K, x2 = 0.1002",1066.2 kg/m3
same,mass density,"293.15 K, x2 = 0.1974",1087.5 kg/m3
same,mass density,"293.15 K, x2 = 0.3",1107.6 kg/m3
same,mass density,"293.15 K, x2 = 0.4001",1125.1 kg/m3
same,mass density,"293.15 K, x2 = 0.4998",1141 kg/m3
same,mass density,"293.15 K, x2 = 0.6",1155.6 kg/m3
same,mass density,"293.15 K, x2 = 0.6997",1169.1 kg/m3
same,mass density,"293.15 K, x2 = 0.7998",1181.7 kg/m3
same,mass density,"303.15 K, x2 = 0.1002",1058.5 kg/m3
same,mass density,"303.15 K, x2 = 0.1974",1079.9 kg/m3
same,mass density,"303.15 K, x2 = 0.4001",1117.5 kg/m3
same,mass density,"303.15 K, x2 = 0.4998",1133.4 kg/m3
same,mass density,"303.15 K, x2 = 0.6",1148.1 kg/m3
same,mass density,"303.15 K, x2 = 0.6997",1161.7 kg/m3
same,mass density,"303.15 K, x2 = 0.7998",1174.4 kg/m3
same,mass density,"313.15 K, x2 = 0.1002",1050.7 kg/m3
same,mass density,"313.15 K, x2 = 0.1974",1072.1 kg/m3
same,mass density,"313.15 K, x2 = 0.3",1092.3 kg/m3
same,mass density,"313.15 K, x2 = 0.4001",1109.9 kg/m3
same,mass density,"313.15 K, x2 = 0.4998",1125.9 kg/m3
same,mass density,"313.15 K, x2 = 0.6",1140.6 kg/m3
same,mass density,"313.15 K, x2 = 0.6997",1154.2 kg/m3
same,mass density,"313.15 K, x2 = 0.7998",1167 kg/m3
same,mass density,"313.15 K, x2 = 0.8999",1179.2 kg/m3
same,mass density,"323.15 K, x2 = 0.1002",1043.1 kg/m3
same,mass density,"323.15 K, x2 = 0.3",1084.7 kg/m3
same,mass density,"323.15 K, x2 = 0.4001",1102.4 kg/m3
same,mass density,"323.15 K, x2 = 0.4998",1118.4 kg/m3
same,mass density,"323.15 K, x2 = 0.6997",1146.8 kg/m3
same,mass density,"323.15 K, x2 = 0.7998",1159.6 kg/m3
same,mass density,"323.15 K, x2 = 0.8999",1172 kg/m3
same,mass density,"333.15 K, x2 = 0.1002",1035.5 kg/m3
same,mass density,"333.15 K, x2 = 0.3",1077.1 kg/m3
same,mass density,"333.15 K, x2 = 0.4001",1094.9 kg/m3
same,mass density,"333.15 K, x2 = 0.4998",1111 kg/m3
same,mass density,"333.15 K, x2 = 0.6",1125.8 kg/m3
same,mass density,"333.15 K, x2 = 0.6997",1139.5 kg/m3
same,mass density,"333.15 K, x2 = 0.8999",1165.1 kg/m3
